From the supplement of paper PMC12217912
Some of the results follow. Sequences were assembled here from the parent chain. Values near 0.05 are background.

B1: TEV protease; numbered along this chain (parent)
chain: MGESLFKGPRDYNPISSSICHLTNESDGHTTSLYGIGFGPFIITNKHLFRRNNGTLVVQSLHGVFKVKDTTTLQQHLVDGRDMIIIRMPKDFPPFPQKLKFREPQREERICLVTTNFQTKSMSSMVSDTSCTFPSGDGIFWKHWIQTKDGQCGSPLVSTRDGFIVGIHSASNFTNTNNYFTSVPKNFMELLTNQEAQQWVSGWRLNADSVLWGGHKVFMVKPEEPFQPVKEATQL

Variants of: B1
Assay: raw area under fraction-flipped curve 0-4 h after induction (AUC4h, not background-subtracted), DNA-recorder readout of cleavage of the substrate (dimensionless); higher = more cleavage of the substrate by the protease variant
Details: temperature: 34 °C; time window: 0-4 h after rhamnose induction
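Further: Bxb1 expression induced with 0.2% (w/v) L-rhamnose at OD600 near 0.5, cultures sampled hourly, flipped fraction per protease–substrate barcode pair counted by paired-end Illumina sequencing.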

Variant | area with substrate EGLYFQS | area with substrate ELLYFQS | area with substrate ERLYFQS | area with substrate ESLYFQS | area with substrate EVLYFQS | area with substrate EILYFQS | area with substrate EYLYFQS | area with substrate EMLYFQS | area with substrate EQLYFQS | area with substrate EHLYFQS
MGESLFKGPRDYNPISSSICHLTNESDGHTTSLYGIGFGPFIITNKHLFRRNNGTLVVQSLHGVFKVKDTTTLQQHLVDGRDMIIIGMPKDFPPFPQKLKFREPQREERICLVTTNFQTKSMSSMVSDTSCTFPSGDGIFWKHWIQTKDGQCGSPLVSTRDGFIVGIHSASNFTNTNNYFTSVPKNFMELLTNQEAQQWVSGWRLNADSVLWGGHKVFMVKPEEPFQPVKEATQL [R87G] | 0.0829 | 0.0797 | 0.0799 | 0.0786 | 0.0828 |  |  |  |  | 
MGESLFKGPRDYNPISSSICHLTNESDGHTTSLYGIGFGPFIITNKHLFRRNNGTLVVQSLHGVFKVKDTTTLQQHLVDGRDMIIIKMPKDFPPFPQKLKFREPQREERICLVTTNFQTKSMSSMVSDTSCTFPSGDGIFWKHWIQTKDGQCGSPLVSTRDGFIVGIHSASNFTNTNNYFTSVPKNFMELLTNQEAQQWVSGWRLNADSVLWGGHKVFMVKPEEPFQPVKEATQL [R87K] | 0.127 |  | 0.19 |  |  | 0.106 | 0.111 |  |  | 
MGESLFKGPRDYNPISSSICHLTNESDGHTTSLYGIGFGPFIITNKHLFRRNNGTLVVQSLHGVFKVKDTTTLQQHLVDGRDMIIIRMPKDFPPTPQKLKFREPQREERICLVTTNFQTKSMSSMVSDTSCTFPSGDGIFWKHWIQTKDGQCGSPLVSTRDGFIVGIHSASNFTNTNNYFTSVPKNFMELLTNQEAQQWVSGWRLNADSVLWGGHKVFMVKPEEPFQPVKEATQL [F95T] | 0.057 | 0.0569 |  |  | 0.0533 | 0.105 |  | 0.158 |  | 
MGESLFKGPRDYNPISSSICHLTNESDGHTTSLYGIGFGPFIITNKHLFRRNNGTLVVQSLHGVFKVKDTTTLQQHLVDGRDMIIIRMPKDFPPFPQKLKFREPQRFERICLVTTNFQTKSMSSMVSDTSCTFPSGDGIFWKHWIQTKDGQCGSPLVSTRDGFIVGIHSASNFTNTNNYFTSVPKNFMELLTNQEAQQWVSGWRLNADSVLWGGHKVFMVKPEEPFQPVKEATQL [E107F] | 0.087 | 0.118 | 0.0994 | 0.122 | 0.0991 | 0.0862 |  |  | 0.0974 | 
MGESLFKGPRDYNPISSSICHLTNESDGHTTSLYGIGFGPFIITNKHLFRRNNGTLVVQSLHGVFKVKDTTTLQQHLVDGRDMIIIRMPKDFPPFPQKLKFREPQREERPCLVTTNFQTKSMSSMVSDTSCTFPSGDGIFWKHWIQTKDGQCGSPLVSTRDGFIVGIHSASNFTNTNNYFTSVPKNFMELLTNQEAQQWVSGWRLNADSVLWGGHKVFMVKPEEPFQPVKEATQL [I110P] | 0.0575 | 0.0468 | 0.0378 | 0.0509 |  |  |  |  | 0.0622 | 0.0683
MGESLFKGPRDYNPISSSICHLTNESDGHTTSLYGIGFGPFIITNKHLFRRNNGTLVVQSLHGVFKVKDTTTLQQHLVDGRDMIIIRMPKDFPPFPQKLKFREPQREERICLVTTNFQTKSMSSMVSDTSCTFPSGDGIFWKHWIQTKDGQCGSPLISTRDGFIVGIHSASNFTNTNNYFTSVPKNFMELLTNQEAQQWVSGWRLNADSVLWGGHKVFMVKPEEPFQPVKEATQL [V157I] | 0.096 | 0.0559 | 0.127 | 0.0937 | 0.104 | 0.0861 |  |  | 0.0984 | 
MGESLFKGPRDYNPISSSICHLTNESDGHTTSLYGIGFGPFIITNKHLFRRNNGTLVVQSLHGVFKVKDTTTLQQHLVDGRDMIIIRMPKDFPPFPQKLKFREPQREERICLVTTNFQTKSMSSMVSDTSCTFPSGDGIFWKHWIQTKDGQCGSPLVSARDGFIVGIHSASNFTNTNNYFTSVPKNFMELLTNQEAQQWVSGWRLNADSVLWGGHKVFMVKPEEPFQPVKEATQL [T159A] | 0.0878 |  |  |  | 0.0877 |  | 0.118 | 0.139 | 0.106 | 0.155
MGESLFKGPRDYNPISSSICHLTNESDGHTTSLYGIGFGPFIITNKHLFRRNNGTLVVQSLHGVFKVKDTTTLQQHLVDGRDMIIIRMPKDFPPFPQKLKFREPQREERICLVTTNFQTKSMSSMVSDTSCTFPSGDGIFWKHWIQTKDGQCGSPLVSTRDGFIVGIHSASYFTNTNNYFTSVPKNFMELLTNQEAQQWVSGWRLNADSVLWGGHKVFMVKPEEPFQPVKEATQL [N172Y] | 0.0586 |  |  |  |  | 0.047 | 0.0562 |  |  | 
MGESLFKGPRDYNPISSSICHLTNESDGHTTSLYGIGFGPFIITNKHLFRRNNGTLVVQSLHGVFKVKDTTTLQQHLVDGRDMIIIRMPKDFPPFPQKLKFREPQREERICLVTTNFQTKSMSSMVSDTSCTFPSGDGIFWKHWIQTKDGQCGSPLVSTRDGFIVGIHSASNFTNTNNYFTGVPKNFMELLTNQEAQQWVSGWRLNADSVLWGGHKVFMVKPEEPFQPVKEATQL [S182G] | 0.0891 | 0.0877 | 0.0981 | 0.0948 |  | 0.139 | 0.067 | 0.145 | 0.123 | 0.11
MGESLFKGPRDYNPISSSICHLTNESDGHTTSLYGIGFGPFIITNKHLFRRNNGTLVVQSLHGVFKVKDTTTLQQHLVDGRDMIIIRMPKDFPPFPQKLKFREPQREERICLVTTNFQTKSMSSMVSDTSCTFPSGDGIFWKHWIQTKDGQCGSPLVSTRDGFIVGIHSASNFTNTNNYFTSVPKNFMELLTDQEAQQWVSGWRLNADSVLWGGHKVFMVKPEEPFQPVKEATQL [N193D] | 0.112 |  |  |  |  |  |  |  |  | 
MGESLFKGPRDYNPISSSICHLTNESDGHTTSLYGIGFGPFIITNKHLFRRNNGTLVVQSLHGVFKVKDTTTLQQHLVDGRDMIIIRMPKDFPPFPQKLKFREPQREERICLVTTNFQTKSMSSMVSDTSCTFPSGDGIFWKHWIQTKDGQCGSPLVSTRDGFIVGIHSASNFTNTNNYFTSVPKNFMELLTNQEAFQWVSGWRLNADSVLWGGHKVFMVKPEEPFQPVKEATQL [Q197F] | 0.0995 |  | 0.119 | 0.118 | 0.105 | 0.128 |  |  | 0.106 | 

Same assay, conditions: temperature: 34 °C; time window: 0-4 h after rhamnose induction

Variant | area with substrate EKLYFQS | area with substrate EPLYFQS | area with substrate EWLYFQS | area with substrate ETLYFQS
MGESLFKGPRDYNPISSSICHLTNESDGHTTSLYGIGFGPFIITNKHLFRRNNGTLVVQSLHGVFKVKDTTTLQQHLVDGRDMIIIRMPKDFPPFPQKLKFREPQREERICLVTTNFQTKSMSSMVSDTSCTFPSGDGIFWKHWIQTKDGQCGSPLISTRDGFIVGIHSASNFTNTNNYFTSVPKNFMELLTNQEAQQWVSGWRLNADSVLWGGHKVFMVKPEEPFQPVKEATQL [V157I] | 0.0963 | 0.117 | 0.0794 | 
MGESLFKGPRDYNPISSSICHLTNESDGHTTSLYGIGFGPFIITNKHLFRRNNGTLVVQSLHGVFKVKDTTTLQQHLVDGRDMIIIRMPKDFPPFPQKLKFREPQREERICLVTTNFQTKSMSSMVSDTSCTFPSGDGIFWKHWIQTKDGQCGSPLVSARDGFIVGIHSASNFTNTNNYFTSVPKNFMELLTNQEAQQWVSGWRLNADSVLWGGHKVFMVKPEEPFQPVKEATQL [T159A] | 0.111 | 0.0453 |  | 
MGESLFKGPRDYNPISSSICHLTNESDGHTTSLYGIGFGPFIITNKHLFRRNNGTLVVQSLHGVFKVKDTTTLQQHLVDGRDMIIIRMPKDFPPFPQKLKFREPQREERICLVTTNFQTKSMSSMVSDTSCTFPSGDGIFWKHWIQTKDGQCGSPLVSTRDGFIVGIHSASYFTNTNNYFTSVPKNFMELLTNQEAQQWVSGWRLNADSVLWGGHKVFMVKPEEPFQPVKEATQL [N172Y] |  | 0.0634 | 0.0681 | 0.0571
MGESLFKGPRDYNPISSSICHLTNESDGHTTSLYGIGFGPFIITNKHLFRRNNGTLVVQSLHGVFKVKDTTTLQQHLVDGRDMIIIRMPKDFPPFPQKLKFREPQREERICLVTTNFQTKSMSSMVSDTSCTFPSGDGIFWKHWIQTKDGQCGSPLVSTRDGFIVGIHSASNFTNTNNYFTGVPKNFMELLTNQEAQQWVSGWRLNADSVLWGGHKVFMVKPEEPFQPVKEATQL [S182G] | 0.112 | 0.149 | 0.143 | 
MGESLFKGPRDYNPISSSICHLTNESDGHTTSLYGIGFGPFIITNKHLFRRNNGTLVVQSLHGVFKVKDTTTLQQHLVDGRDMIIIRMPKDFPPFPQKLKFREPQREERICLVTTNFQTKSMSSMVSDTSCTFPSGDGIFWKHWIQTKDGQCGSPLVSTRDGFIVGIHSASNFTNTNNYFTSVPKNFMELLTDQEAQQWVSGWRLNADSVLWGGHKVFMVKPEEPFQPVKEATQL [N193D] |  | 0.0935 |  | 
MGESLFKGPRDYNPISSSICHLTNESDGHTTSLYGIGFGPFIITNKHLFRRNNGTLVVQSLHGVFKVKDTTTLQQHLVDGRDMIIIRMPKDFPPFPQKLKFREPQREERICLVTTNFQTKSMSSMVSDTSCTFPSGDGIFWKHWIQTKDGQCGSPLVSTRDGFIVGIHSASNFTNTNNYFTSVPKNFMELLTNQEAFQWVSGWRLNADSVLWGGHKVFMVKPEEPFQPVKEATQL [Q197F] | 0.114 |  |  | 
